Laboratory results as given in PubChem BioAssay AID434955 (Southern Research Specialized Biocontainment Screening …, 2010).
The list shows a part of the results. Shown are side measurements of this screen, not its main read-out; they come without a call. Most of these compounds were active or inconclusive in the main read-out, so they are no random draw.

Test: beta-lactam sensitization of Mtb H37Rv, H37Rv (AID 434955);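 note: growth measured after seven days incubation then overnight dye step; 0% = bacteria only wells and 100% = bacteria with antibiotic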
Details: M. tuberculosis H37Rv growth with meropenem, percent inhibition; measured here: primary screen without meropenem; at 25 µM
In the case of `CC(=O)N1Cc2ccccc2C(C)CC12CCCCC2` (stereo not drawn), the inhibition is reported as 0.06%.
`Cc1ccc(Nc2nc(-c3ccc(S(=O)(=O)N4CCOCC4)cc3)cs2)cc1` showed an inhibition of 4.08%.
For `C/C(=N\Nc1ccc([N+](=O)[O-])cc1[N+](=O)[O-])C(C)(C)C(C(=O)O)C(=O)O`, the inhibition was 4.21%.
`COc1ccc(C2C3=C(N=C4SCC(=O)N42)c2ccccc2CC3)cc1OC` (stereo not drawn) gave an inhibition of -1.14%.
`CN(CC(=O)Nc1ccc(OC(F)(F)F)cc1)C(=O)/C=C/c1cc2c(cc1[N+](=O)[O-])OCO2` showed an inhibition of 91.5%.
With `CCCCc1nc(SCC(=O)Nc2cccc(Cl)c2)n[nH]1` the inhibition was -1.35%.
With `Cc1ccc(S(=O)(=O)Nc2cc3c(cc2N2CCOCC2)n(C)c(=O)c(=O)n3C)cc1` the inhibition was -12.4%.
`CC(=O)Nc1ccc(S(=O)(=O)N2CCN(C(=O)C3COc4ccccc4O3)CC2)cc1` (stereo not drawn) gave an inhibition of 3.96%.
`CCCOc1ccccc1NC(=O)/C=C/C(N)=O` showed an inhibition of 5.62%.
`COC(=O)Sc1nnc(-c2ccc(Br)cc2)o1` showed an inhibition of 2.85%.
Work on `O=C(c1cc(COc2ccc(F)cc2Cl)on1)N1CCN(c2cnccn2)CC1` yielded an inhibition of 53.3%.
In the case of `Cc1c(-c2ccc(OCc3ccccc3)cc2)nc2ccccc2c1C(=O)O`, the inhibition is reported as 7.79%.
Work on `Cc1ccc(/C=C/C(=O)Nc2cccc(S(=O)(=O)N3CCOCC3)c2)o1` yielded an inhibition of 0.85%.
In the case of `Cc1occc1C(=O)NCc1ccccn1`, the inhibition is reported as 1.51%.
In the case of `CCC(=O)NC(c1ccc([N+](=O)[O-])cc1)c1c(O)ccc2ccccc12` (stereo not drawn), the inhibition is reported as 0.2%.
With `Cc1ccc2c(Cl)cc(Cl)c(OCc3c(C)noc3C)c2n1` the inhibition was 17.6%.
`CCOC(=O)C1CCN(C(=O)c2cc(COc3ccc(F)cc3F)on2)CC1` showed an inhibition of 73.6%.
With `Cc1ccccc1Cn1cc(NC(=O)CSc2nc3c(c(C(F)(F)F)n2)CCc2ccccc2-3)cn1` the inhibition was 9.01%.
Molecule `COc1ccc(N(C(=O)c2cccnc2)S(=O)(=O)c2ccc(OC)c(OC)c2)cc1` has an inhibition of -6.99%.
With `Cn1ncc(Cl)c1C(=O)N1CCC2(CC1)OCCO2` the inhibition was 2.29%.
`CCCCOc1cccc(NC(=O)CSc2nncn2C)c1` showed an inhibition of 10.4%.
With `COc1ccc(N2CC(C(=O)Nc3nnc(SCC(=O)NC4CCCC4)s3)CC2=O)cc1` (stereo not drawn) the inhibition was 2.27%.
Molecule `CC(OC(=O)c1ccc(NC(=O)CC#N)cc1)C(=O)NC(=O)NC1CCCCC1` (stereo not drawn) has an inhibition of 2.28%.
In the case of `CCCC(=O)c1c(NC)cc(C)oc1=O`, the inhibition is reported as 4.37%.
For `O=C(CSc1nnc2scc(-c3ccccc3)n12)c1ccc2c(c1)OCCO2`, the inhibition was -5.16%.
`Cc1ccc(C(=O)NC2CCCCC2)cc1S(=O)(=O)N1CCCC1` gave an inhibition of 18.5%.
Molecule `COc1ccc(C(=O)N2CCNC(=O)C2CC(=O)Nc2cccc(Cl)c2Cl)cc1` (stereo not drawn) has an inhibition of 7.81%.
With `CN(C)c1ccc(S(=O)(=O)c2ccc(Cl)cc2)cc1` the inhibition was 5.97%.
Work on `CN(C(=O)Nc1ccc(Cl)cc1)n1cnc2ccccc2c1=O` yielded an inhibition of 38.9%.
In the case of `C/C(=N/NC(=O)c1cccs1)c1c(C)[nH]n(-c2nc3ccccc3s2)c1=O`, the inhibition is reported as 50.4%.
In the case of `COc1cc(NC(=O)COC(=O)CCOc2ccc(C)cc2)cc(OC)c1`, the inhibition is reported as 6.63%.
Molecule `Cn1c(=O)[nH]c(=O)c2c1nc(CN1CCN(c3cccc(Cl)c3)CC1)n2CCc1ccccc1` has an inhibition of -0.59%.
With `C=CCc1ccccc1OCC(O)CN1CCN(c2ccc(OC)cc2)CC1` (stereo not drawn) the inhibition was 17.9%.
For `CSc1nnc(C)c(/C=C/Nc2ccc(Cl)cc2)n1`, the inhibition was -3.63%.
Molecule `COc1ccc(NS(=O)(=O)c2ccc(O)c(NC(=O)c3cc4c(C)nn(-c5ccc(F)cc5)c4s3)c2)cc1` has an inhibition of 83.6%.
With `Cc1cc(S(=O)(=O)Nc2c(C)ccc3nsnc23)ccc1F` the inhibition was -2.36%.
For `CCOc1ccc(NC(=O)CC2C(=O)N(c3ccc(OC)c(Cl)c3)C(=S)N2C2CC2)cc1` (stereo not drawn), the inhibition was -1.84%.
`COc1cccc(CNS(=O)(=O)c2c(C)[nH]c(C)c2C(=O)N2CCCC2)c1` gave an inhibition of -5.66%.
`Cc1ccc(S(=O)(=O)N(CC(=O)Nc2ccc(Cl)c([N+](=O)[O-])c2)C2CCCCC2)cc1` showed an inhibition of 23%.
In the case of `Cc1cc(C)cc(N2C(=O)c3nccnc3C2=O)c1`, the inhibition is reported as -7.33%.
Work on `CCCCOc1ccc(C(=O)Nc2ccc(S(=O)(=O)Nc3onc(C)c3C)cc2)cc1` yielded an inhibition of 5.63%.
For `Cc1ccccc1NC(=S)N(CCCN1CCCCC1)Cc1ccco1`, the inhibition was -2.96%.
Molecule `COc1ccc(-c2csc3ncnc(N4CCN(c5ccc(OC)cc5)CC4)c23)cc1` has an inhibition of 40.4%.
In the case of `CC(C)c1ccc(NC(=O)Cn2ncn3c(cc4ccccc43)c2=O)cc1`, the inhibition is reported as 6.55%.
`CCOC(=O)c1c(C)[nH]c(C(=O)OC(C)C(=O)Nc2ccccc2OC)c1C` (stereo not drawn) gave an inhibition of 2.47%.
Work on `CCOc1ccc(C2=C(C=C(C#N)C#N)C(c3ccccc3)c3ccccc3O2)cc1` (stereo not drawn) yielded an inhibition of 11.9%.
Work on `COC(=O)CC1Oc2ccc(C)cc2NC1=O` (stereo not drawn) yielded an inhibition of -7.83%.
`CC(C)(C)C(=O)Nc1ccnn1C1CCN(C(=O)c2cccc(Cl)c2)CC1` gave an inhibition of 5.61%.
With `C(=C\c1ccccc1)/CSc1nnc(-c2cccnc2)n1Cc1ccco1` the inhibition was -0.86%.
`COc1ccc(-c2cccc(NC(=O)COc3ccc(Cl)cc3)c2)nn1` showed an inhibition of 5.59%.
`Cc1csc(=O)n1CC(=O)OCC(=O)Nc1cc(Cl)ccc1[N+](=O)[O-]` showed an inhibition of -1.65%.
`CC(C)Cc1ccc(CN2CCCC(NC(=O)c3cccc(-n4cnnc4)c3)C2)cc1` (stereo not drawn) showed an inhibition of 40.3%.
Molecule `Cc1ccc(S(=O)(=O)Nc2cccc(-n3cnnn3)c2)cc1` has an inhibition of 0.12%.
